For 42 sequences, binding signal results are on record in publication PMC7819943, “Rice protein-binding microarrays: a tool to detect cis-acting elements near promoter regions in rice”.

The other results are listed elsewhere or left out.

This assay concerns the target T1, OsWOX13 (Oryza sativa, UniProt Q5QMM3 1-267).
T1 sequence: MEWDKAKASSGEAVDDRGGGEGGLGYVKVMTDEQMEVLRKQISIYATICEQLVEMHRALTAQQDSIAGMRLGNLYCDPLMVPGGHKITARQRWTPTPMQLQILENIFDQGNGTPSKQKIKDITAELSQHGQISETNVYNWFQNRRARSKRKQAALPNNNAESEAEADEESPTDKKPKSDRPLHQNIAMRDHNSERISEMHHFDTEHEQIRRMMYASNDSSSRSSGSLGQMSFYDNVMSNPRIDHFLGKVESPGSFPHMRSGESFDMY
As to the kind of experiment: protein-binding microarray (RPBM); PBS, 2% BSA, 51.3 ng/ul salmon testes DNA, 50 uM zinc acetate, 200 nM TF, 25 C, 1 h; high values mean tight binding. The settings on record: protein: recombinant; tags: N-terminal polyhistidine and DsRed monomer fusion (pET32a); label: CyDye5-dUTP incorporated in the synthesized complementary strand; 3' TTTTT single-stranded linker to array surface; dsDNA, one strand shown. An outline of the steps: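 The binding signal is fluorescence intensity per array feature (arbitrary units). Readings came from an Axon 4000B scanner after a washed, 2% BSA-blocked, double-stranded custom Agilent array had been incubated for 1 h at 25 °C with 200 nM protein and 50 µM zinc acetate. The protein was a Ni–NTA-purified transcription factor fused N-terminally to polyhistidine and DsRed, expressed in E. coli BL21-CodonPlus.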
Consider “ATTTAAAATGATTAGACACAACCTACACTTATATATCTGTCGGAGTCACCTAGTGCAG”, for which the binding signal was 21800 fluorescence intensity (a.u.).
In the case of “ACTAAAATTCCTGTTAGCATATTTTGACATGTAGAATCCACGGAGTCACCTAGTGCAG” it was 4070 fluorescence intensity (a.u.); in that of “TGGACAGGCCAATCACAGGAAGCACCGCATTTCGTGCCAACGGAGTCACCTAGTGCAG”, 11000 fluorescence intensity (a.u.).
In the case of “TCCCAGTAAATTAACGGATTTAGAAACAGCCGGAAATCTTCGGAGTCACCTAGTGCAG” it was 9160 fluorescence intensity (a.u.); in that of “ACTGATAGGCTAGATTAGGTTTTCCTCCCCATTGTACTTCCGGAGTCACCTAGTGCAG”, 35200 fluorescence intensity (a.u.).
In the case of “AATAATTTGAATAGTCTGTATACAGAGTAAGAAAAGTAACCGGAGTCACCTAGTGCAG”, the binding signal was 8970 fluorescence intensity (a.u.).
In the case of “TAGTGCTCATTGATTCCACTAATTAAGAACCGCTAACTACCGGAGTCACCTAGTGCAG” it was 15000 fluorescence intensity (a.u.).
In the case of “TATATGGTAATTAATCCTTGTGCGCTGACACTGATCAAGTCGGAGTCACCTAGTGCAG” it was 4070 fluorescence intensity (a.u.); in that of “CCAAAATTTTGGCAGAATTTCTTATGTATTTACCAAAGTTCGGAGTCACCTAGTGCAG”, 3300 fluorescence intensity (a.u.).
Take “CCCAAATTATACTAATTATTTTATTTATTCTACATCTGACCGGAGTCACCTAGTGCAG”: the binding signal was 27800 fluorescence intensity (a.u.).
The figure for “AATATCCCATGATTGACTAGCTAGATGAATCCATATGGGTCGGAGTCACCTAGTGCAG” is 36500 fluorescence intensity (a.u.).
In the case of “GGGTGATTAATCCAAGTAATGATCTCACTCCACTGATAGTCGGAGTCACCTAGTGCAG”, the binding signal was 26800 fluorescence intensity (a.u.).
The figure for “CAACTAATTGAATATTGTATTTTAATGCTCGTGGTGTCCCCGGAGTCACCTAGTGCAG” is 52200 fluorescence intensity (a.u.); for “GAAGAAGATTGCCGGTTGACTTGTGGAGTCCACGTGGGACCGGAGTCACCTAGTGCAG” it is 8820 fluorescence intensity (a.u.); for “TTTATTTGTTTTGCTGATGATTTGCTACGTCAGCGAAACCCGGAGTCACCTAGTGCAG” it is 4530 fluorescence intensity (a.u.).
With “GTCCCCGAACTTCCAGTTAATTATGTGCCGGTCCTAGATTCGGAGTCACCTAGTGCAG”, the binding signal is 4240 fluorescence intensity (a.u.).
The figure for “GTCTGATTTTGGCTGTGTAAATCCGTCTCAGGATAGGCCGCGGAGTCACCTAGTGCAG” is 13200 fluorescence intensity (a.u.); for “TTTGATATGTTGTCTTCCTCCAATTACGAATCTTTCGTTGCGGAGTCACCTAGTGCAG” it is 10400 fluorescence intensity (a.u.); for “AATAATTAATACTGGTTTGTCTCGTTTTACGTATCATAAACGGAGTCACCTAGTGCAG” it is 21400 fluorescence intensity (a.u.).
With “TGTTATAATAGTGTAGATTGATCGATATAATTGTATATGACGGAGTCACCTAGTGCAG”, the binding signal was 3170 fluorescence intensity (a.u.).
The figure for “GGGTAAAATTATCAAAATTAATCACCTTTCTTCCTCCTCGCGGAGTCACCTAGTGCAG” is 17400 fluorescence intensity (a.u.); for “CCAAATTTTGATATGCCAAATTTTGATCGCCCACCTGCACCGGAGTCACCTAGTGCAG” it is 7090 fluorescence intensity (a.u.).
For the sequence “GGGAATTAGGGGCAGATTGCTAAGGACTTAGACGTGTTGCCGGAGTCACCTAGTGCAG”, the binding signal is 15700 fluorescence intensity (a.u.).
Regarding “CCTGAGCGAGTTGATTTGCACTGTTCCTTGAACACACAAGCGGAGTCACCTAGTGCAG”, the binding signal is 5420 fluorescence intensity (a.u.).
In the case of “ATTTTCTCTTAAATTACTTATCTAATCTATAATCCGATCACGGAGTCACCTAGTGCAG” it was 3650 fluorescence intensity (a.u.); in that of “ATTTGAGGATTGGTGTCTAAATCACATCATAGTATATTGCCGGAGTCACCTAGTGCAG”, 4340 fluorescence intensity (a.u.).
In the case of “CGTGATAGAATCTGCCGACTTGTCTTAGCTAACAGCTTCCCGGAGTCACCTAGTGCAG”, the binding signal is 15000 fluorescence intensity (a.u.).
On to “ATTACTCATGATGGGCTTCAATTATCTCTTGCTTCAGCAACGGAGTCACCTAGTGCAG”, for which the binding signal is 16200 fluorescence intensity (a.u.).
In the case of “CCATTCCTGTCAATCTGGGCCAGAGGGCTGAAATTGGGCCCGGAGTCACCTAGTGCAG”, the binding signal is 5060 fluorescence intensity (a.u.).
For “GGTAATGATGAAGAAACATTGTCCGGCATCCTTCAGATTTCGGAGTCACCTAGTGCAG”, the binding signal is 4690 fluorescence intensity (a.u.).
The figure for “CAAATTCACATTGATAGGTATAATGATGTACACTCTTCGTCGGAGTCACCTAGTGCAG” is 8210 fluorescence intensity (a.u.); for “ATGTAAAGATTTTAATTACAACGAATATAACGGTGTAATCCGGAGTCACCTAGTGCAG” it is 8090 fluorescence intensity (a.u.); for “GTACTCACAAATTATTGATTCATGGAAGGAAGGAAGGAGGCGGAGTCACCTAGTGCAG” it is 5970 fluorescence intensity (a.u.).
In the case of “AGGGATTTTACTAATCATGTCAACTGCTGAACAGTTATAACGGAGTCACCTAGTGCAG” it was 9740 fluorescence intensity (a.u.); in that of “AGATAGATAGCTATCAGATTGGAATTGGCCACAAAAGCTACGGAGTCACCTAGTGCAG”, 11000 fluorescence intensity (a.u.); in that of “TTGCACGCGTAATTAATCAATCAATAATATACCCTCTTCGCGGAGTCACCTAGTGCAG”, 37500 fluorescence intensity (a.u.).
In the case of “CCTAAATTTCAATTTTAGGGATGCATGGGACATGGCTGCACGGAGTCACCTAGTGCAG” it was 9800 fluorescence intensity (a.u.).
Turning to “TAAGTCGCAGTTAAAATTTAAATTTTAAAACCTAAACTTCCGGAGTCACCTAGTGCAG”, the binding signal was 4740 fluorescence intensity (a.u.).
With “CTTAACAATTGACCATCAGATCCTGTGCACTTGGTAGTTTCGGAGTCACCTAGTGCAG”, the binding signal is 7030 fluorescence intensity (a.u.).
The figure for “ATAATGGGAAATGGAGGGTGGGATTGGGATTAGAAAATGACGGAGTCACCTAGTGCAG” is 3290 fluorescence intensity (a.u.); for “GGGCGAGATTGAAGGAGACGTCGTCTGGCAGGAAGGGTAGCGGAGTCACCTAGTGCAG” it is 15600 fluorescence intensity (a.u.).
With “TGGTATGAATGGATAATTTGTTTCTGTCTTATGTGTTGCTCGGAGTCACCTAGTGCAG”, the binding signal was 4830 fluorescence intensity (a.u.).
